# Hit rate of the full screen: of about 39,000 compounds, about 220 (0.56%) showed activity. The list shows a part of the results.
# Tested on: Escherichia coli K-12 BW25113
# Test: relative growth (OD600 normalised to plate interquartile mean) (fraction); higher = less growth inhibition, active = 0.2 or less
# Conditions: 50 µM; LB; incubation time: overnight (16-24 h)
# 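Also: static incubation at 37 °C against the wild-type strain, values averaged over two biological replicates.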
row,SMILES,relative growth
1,CCCNC(=O)N1C[C@]2(CCN(CC2)C(=O)Cc2cccnc2)c2c([nH]c3cc(ccc23)OC)[C@@H]1CO,inactive: 1.02
2,COc1ccc(S(=O)(=O)Nc2cccc3c2O[C@H](CN(C)CC2CC2)[C@H](C)CN([C@@H](C)CO)C3=O)cc1,inactive: 1.01
3,COc1ccc(S(=O)(=O)Nc2cccc3c2O[C@H](CN(C)Cc2ccc(Cl)c(Cl)c2)[C@H](C)CN([C@@H](C)CO)C3=O)cc1,inactive: 1.02
4,CO[C@@H]1CN(C)C(=O)c2cc(NC(=O)Nc3ccccc3F)ccc2OC[C@@H](C)N(C(=O)Nc2ccccc2F)C[C@H]1C,inactive: 1.02
5,C[C@@H]1CN([C@@H](C)CO)C(=O)Cc2cc(NS(=O)(=O)c3cccs3)ccc2O[C@H]1CN(C)C(=O)Nc1cccc2ccccc12,inactive: 1.03
6,C[C@H](CO)N1C[C@H](C)[C@@H](CN(C)Cc2ccccc2)OCCCC[C@H](C)Oc2ccc(NS(=O)(=O)c3cccs3)cc2C1=O,inactive: 0.987
7,O=c1[nH]cnc2c1ncn2C1CCC(CO)O1 (configuration not stated),inactive: 0.609
8,C[C@H](CO)N1C[C@H](C)[C@@H](CN(C)S(=O)(=O)c2cccs2)OCCCC[C@H](C)Oc2ccc(NC(=O)Nc3ccc(F)cc3)cc2C1=O,inactive: 1.05
9,COc1cc([C@H]2OC[C@@H]3[C@H]2CO[C@H]3c2cc(OC)c(O[C@@H]3O[C@H](CO)[C@@H](O)[C@H](O)[C@H]3O)c(OC)c2)cc(OC)c1OC,inactive: 0.993
10,C[C@@H]1CN([C@H](C)CO)C(=O)Cc2cc(NC(=O)Cc3cn(C)c4ccccc34)ccc2O[C@H]1CN(C)C(=O)Nc1ccc(C(F)(F)F)cc1,inactive: 1.01
11,CCC(=O)Nc1ccc2c(c1)OC[C@H](C)N(C(=O)CN1CCOCC1)C[C@@H](C)[C@@H](OC)CN(C)C2=O,inactive: 1.02
12,CC(=O)N1Cc2cc(C(=O)NCc3cc(F)cc(F)c3)nc(-c3cccc(C4=CCCC4)c3)c2[C@@H]1CCO,inactive: 0.976
13,COC(=O)[C@H]1OC2(CCCC2)O[C@@H]1C(=O)OC,inactive: 1.02
14,C[C@H](CO)N1C[C@H](C)[C@@H](CN(C)Cc2ccc(Oc3ccccc3)cc2)Oc2c(NC(=O)Nc3ccccc3)cccc2C1=O,inactive: 1.03
15,C[C@@H]1CCCCO[C@@H](CN(C)C(=O)CCC(F)(F)F)[C@@H](C)CN([C@H](C)CO)C(=O)c2cc(NC(=O)CCCCCC(=O)Nc3ccccc3N)ccc2O1,inactive: 0.951
16,Cc1ccc(S(=O)(=O)Nc2cccc3c2O[C@@H](CN(C)CC2CC2)[C@H](C)CN([C@@H](C)CO)C3=O)cc1,inactive: 0.993
17,CCNC(=O)N1CCC(N)CC1,inactive: 1.03
18,C[C@@H]1CN([C@H](C)CO)C(=O)Cc2cc(NC(=O)c3ccncc3)ccc2O[C@H]1CN(C)Cc1ccc(C(=O)O)cc1,inactive: 1.02
19,OCCN1CCOCC1,inactive: 0.982
20,C=C[C@H]1CCC=C2C(=O)CCC[C@@H]21,inactive: 1.06
21,C[C@@H]1CN([C@@H](C)CO)C(=O)c2cc(NC(=O)CCN3CCOCC3)ccc2O[C@@H]1CN(C)S(=O)(=O)c1cn(C)cn1,inactive: 0.987

row,SMILES,relative growth
1,C[C@@H]1CN([C@H](C)CO)C(=O)c2cc(NS(=O)(=O)c3ccc(Cl)cc3)ccc2O[C@@H](C)CCCCO[C@@H]1CN(C)Cc1ccc(C(F)(F)F)cc1,inactive: 1.04
2,C[C@H]1CN([C@@H](C)CO)C(=O)c2cccc(NC(=O)c3nc4ccccc4s3)c2O[C@@H]1CN(C)Cc1ccc(C(F)(F)F)cc1,inactive: 1
3,NCC[C@H]1CC[C@@H](NC(=O)NC2CCCCC2)[C@@H](CO)O1,inactive: 1.01
4,Nc1ccccc1C(=O)CC(N)C(=O)O (configuration not stated),inactive: 0.878
5,CCCCC/C=C\C/C=C\C/C=C\C/C=C\CCCC(=O)O,inactive: 0.881
6,C[C@@H]1CCCCO[C@H](CN(C)C(=O)c2ccncc2)[C@H](C)CN([C@H](C)CO)C(=O)c2cc(NS(C)(=O)=O)ccc2O1,inactive: 0.993
7,C[C@@H]1CN([C@@H](C)CO)C(=O)c2cccc(NC(=O)c3cnccn3)c2O[C@@H]1CN(C)Cc1ccc2c(c1)OCO2,inactive: 1.02
8,Cc1ccc(S(=O)(=O)Nc2cccc3c2O[C@H](CN(C)S(=O)(=O)c2ccccc2)[C@@H](C)CN([C@@H](C)CO)C3=O)cc1,inactive: 0.966
9,CN1C(=O)c2cc(NC(=O)Nc3ccccc3F)ccc2OC[C@H]2O[C@@H](CC(=O)NCc3ccc(-c4ccccc4)cc3)CC[C@@H]21,inactive: 1.01
10,C[C@H]([C@@H](N)C(=O)N[C@H](C(=O)O)[C@H]1O[C@@H](n2ccc(O)cc2=O)[C@@H](O)[C@H]1O)[C@@H](C)c1ccc(O)cn1,inactive: 1.03
11,Cc1cncc2cccc(S(=O)(=O)N[C@H]3CN[C@H](C(=O)NN)C3)c12,inactive: 1.04
12,CCOC(=O)C(CCc1ccccc1)NC(C)C(=O)N1C(C(=O)O)CC2CCCCC21 (configuration not stated),inactive: 1.05
13,C[C@H](CO)N1C[C@H](C)[C@H](CN(C)S(=O)(=O)c2cccs2)Oc2ccc(NS(=O)(=O)c3cccs3)cc2CC1=O,inactive: 0.995
14,C[C@@H]1CCCCO[C@@H](CN(C)Cc2ccc3c(c2)OCO3)[C@@H](C)CN([C@H](C)CO)C(=O)c2cc(NC(=O)Cc3ccccc3)ccc2O1,inactive: 0.993
15,O=C(CCCCCNC(=O)OCCCCO[C@@H]1C[C@H](c2ccc3c(c2)OCO3)C=C(C(=O)N2CCOCC2)O1)NO,inactive: 0.997
16,C[C@@H]1CN([C@H](C)CO)C(=O)Cc2cc(NC(=O)c3ccncc3)ccc2O[C@H]1CN(C)C(=O)NC1CCCCC1,inactive: 0.956
17,C[C@H](CO)N1C[C@H](C)[C@H](CN(C)Cc2ccc(C(F)(F)F)cc2)Oc2ccc(NC(=O)Nc3ccc4c(c3)OCO4)cc2C1=O,inactive: 0.997
18,C[C@H](CO)N1C[C@H](C)[C@@H](CN(C)S(=O)(=O)c2cccs2)Oc2ccc(NS(=O)(=O)c3cccs3)cc2C1=O,inactive: 0.985
19,C[C@@H]1CCCCO[C@H](CN(C)Cc2ccccc2)[C@@H](C)CN([C@@H](C)CO)C(=O)c2cc(NC(=O)Nc3cccc4ccccc34)ccc2O1,inactive: 1.04
20,C[C@@H]1CN([C@@H](C)CO)C(=O)c2cc(C#CC3(O)CCCC3)cnc2O[C@H]1CN(C)C(=O)Cc1ccncc1,inactive: 1.01
21,Cc1noc(C)c1S(=O)(=O)Nc1cccc2c1O[C@@H](CN(C)S(C)(=O)=O)[C@@H](C)CN([C@H](C)CO)C2=O,inactive: 0.996

row,SMILES,relative growth
1,C[C@H](CO)N1C[C@H](C)[C@@H](CN(C)C(=O)C2CCOCC2)Oc2cc(C3=CCCC3)ccc2S1(=O)=O,inactive: 0.992
2,O=C(C[C@@H]1C=C[C@@H](NC(=O)C2CC2)[C@H](CO)O1)NCCCN1CCOCC1,inactive: 0.969
3,C[C@H](CO)N1C[C@H](C)[C@H](CN(C)C(=O)NC2CCCCC2)OCCCC[C@H](C)Oc2ccc(NS(=O)(=O)c3ccccc3)cc2C1=O,inactive: 1.03
4,CC(C)C#Cc1ccc2c(c1)O[C@H](CN(C)C(=O)Cc1ccccn1)[C@@H](C)CN([C@H](C)CO)S2(=O)=O,inactive: 1.04
5,CC(C)COCC(CN(Cc1ccccc1)c1ccccc1)N1CCCC1.Cl (configuration not stated),inactive: 1
6,C[C@H]1CN([C@@H](C)CO)C(=O)c2c(c3ccccc3n2C)-c2ccccc2CO[C@@H]1CN(C)Cc1ccc2c(c1)OCO2,inactive: 0.972
7,CC[C@@H](CO)NCCN[C@@H](CC)CO,inactive: 0.969
8,Cn1cnc(S(=O)(=O)N2C[C@H](O)COC[C@H]3O[C@H](CC(=O)NCc4cc(F)cc(F)c4)CC[C@@H]32)c1,inactive: 1.02
9,CC(=O)N(C)C[C@H]1Oc2ncc(C#CC(C)(C)O)cc2C(=O)N([C@H](C)CO)C[C@@H]1C,inactive: 0.982
10,CCS(=O)(=O)Nc1ccc2c(c1)C(=O)N(C)[C@H]1CC[C@H](CC(=O)NCc3ccc(OC)cc3)O[C@H]1CO2,inactive: 1
11,C[C@@H]1CCCCO[C@H](CN(C)C(=O)Nc2ccc3c(c2)OCO3)[C@H](C)CN([C@H](C)CO)C(=O)c2cc(NC(=O)c3ccncc3)ccc2O1,inactive: 0.996
12,COc1cc2c(cc1OC)CN(CCc1ccc(-n3nnc(-c4cc(OC)c(OC)cc4NC(=O)c4cc(=O)c5ccccc5o4)n3)cc1)CC2,inactive: 1.02
13,C[C@H](CO)N1C[C@H](C)[C@@H](CN(C)C(=O)c2ccccc2)OCCCC[C@H](C)Oc2ccc(NC(=O)Nc3ccc(C(F)(F)F)cc3)cc2C1=O,inactive: 1.01
14,C[C@H]1CCCCO[C@H](CN(C)C(=O)c2ccccc2)[C@@H](C)CN([C@@H](C)CO)C(=O)c2cc(NC(=O)C3CCCCC3)ccc2O1,inactive: 0.989
15,C[C@@H]1CCCCO[C@H](CN(C)C(=O)Nc2ccc3c(c2)OCO3)[C@H](C)CN([C@@H](C)CO)C(=O)c2cc(NC(=O)Cc3ccccc3)ccc2O1,inactive: 1.07
16,COc1ccc(-n2c(N)cc(=O)[nH]c2=O)cc1,inactive: 1.03
17,C[C@@H]1CCCCO[C@H](CN(C)C(=O)Nc2ccccc2)[C@H](C)CN([C@H](C)CO)C(=O)c2cc(NC(=O)NC3CCCCC3)ccc2O1,inactive: 1.03
18,CC(C)NC(=O)N(C)C[C@H]1Oc2ccc(NC(=O)Cc3ccccc3)cc2CC(=O)N([C@H](C)CO)C[C@H]1C,inactive: 0.983
19,O=C(C[C@@H]1C[C@H]2c3cc(NS(=O)(=O)c4ccc(F)cc4)ccc3O[C@H]2[C@@H](CO)O1)NCCc1ccccc1,inactive: 0.998
20,COCCN1C(=O)C2=C(C1=O)[C@H]1N(C)c3ccccc3[C@@]13C[C@@H](CO)N(C(C)=O)C3=N2,inactive: 0.994

# Reference: the supplement of paper PMC9446081
